In all, about 52,000 compounds went through this assay and about 1,700 (3.3%) were called active. Rule as the data show it: active = survival mostly below about 52% (no sharp cut-off); inactive = mostly above about 56%. The list shows a part of the results.
Each compound was assayed on Wild type (assay: growth inhibition of S. aureus wild type versus tarO mutant, primary screen, teichoic acid synthesis inhibitors, RN4220, OD600 (AID 463173)). Conditions: S. aureus RN4220 wild type/DeltatarO growth, OD600, 18 h, active compounds read low, screened at 18.75 µg/mL (by protocol).

Structure (SMILES)	survival
CC(C)N1CCN(S(=O)(=O)c2ccc(Cl)cc2)CC1	inactive: 100%
O=C(NCC(c1cccnc1)N1CCN(Cc2ccccc2)CC1)C(=O)Nc1cccc(F)c1 (stereo not given)	inactive: 114%
Cc1ccc(Cn2c(=O)n(CC3CCC(C(=O)N4CCOCC4)CC3)c(=O)c3sccc32)cc1 (stereo not given)	inactive: 71%
CCOc1ccccc1C(=O)NC1CC2CCCC(C1)N2C1CC1 (stereo not given)	inactive: 109%
C/C(=N\NC(N)=O)C1CC(CC(C)C)C(=O)O1 (stereo not given)	inactive: 115%
O=C(CC1Oc2ccc(Cl)cc2NC1=O)NCc1ccccc1 (stereo not given)	inactive: 85%
CCOC(=O)CC(NC(=O)Cn1nnc(-c2ccc(C(F)(F)F)cc2)n1)c1ccc(C)cc1 (stereo not given)	inactive: 87%
CCN(CC)S(=O)(=O)c1ccc2c(c1)N(CC(=O)Nc1ccc(F)cc1)C(=O)CO2	inactive: 76%
Cc1ccc(S(=O)(=O)N2CCCc3cc(NC(=O)c4ccccc4Cl)ccc32)cc1	inactive: 128%
COc1ccc(CCNC(=O)CCCCCn2c(SCC(N)=O)nc3cc4c(cc3c2=O)OCO4)cc1OC	inactive: 76%
CCOC(=O)CNc1cccc(Cl)c1	inactive: 112%
CCN(CC)C(=O)/C(=C\c1ccc(OC)c(OC)c1)n1ccccc1=O	inactive: 96%
Cc1ccc(C)c(N(C)C(=O)C2CCN(c3ncnc4c3nc3n4CCCCC3)CC2)c1	inactive: 63%
Cc1ccc(CNCc2c(C(=O)O)c(C)n(Cc3ccc(C)cc3)c2C)cc1	inactive: 105%
O=C(Nc1c(C(=O)c2ccc(F)cc2)oc2ccccc12)c1cc(-c2ccccc2)on1	inactive: 92%
COc1ccc(NC(=O)N(Cc2nnc3n2CCCCC3)c2ccc(OC)c(Cl)c2)cc1	inactive: 47%
Cn1cnc(S(=O)(=O)N2CCCC(C(=O)Nc3cccc(C#N)c3)C2)c1 (stereo not given)	inactive: 130%
CCN(CC)S(=O)(=O)c1nnc(NC(=O)COc2cccc(C)c2)s1	inactive: 96%
COCCNC(=O)CSc1nc2ccccc2nc1Cc1ccc(C)cc1	inactive: 70%
CCn1c(=O)cc(OCC(=O)Nc2cc(OC)c(OC)c(OC)c2)c2ccccc21	inactive: 63%
O=C(CN(c1ccc2c(c1)OCCO2)S(=O)(=O)c1ccccc1)NC1CC1	inactive: 113%
CCOc1ccc(CNC(=O)c2ccc3nc(CC)c(CC)nc3c2)cc1OC	inactive: 69%
CCc1ccc(S(=O)(=O)c2c(C(=O)c3ccc(C)c(C)c3)cnc3ccccc23)cc1	inactive: 96%
COc1cccc(N2CCN(c3ccc4nnc(CCC(=O)O)n4n3)CC2)c1	inactive: 72%
CC(C)CC(=O)Nc1ccc(S(=O)(=O)NCc2ccco2)cc1	inactive: 76%

Reference: PubChem BioAssay AID463173 (ICCB-Longwood Screening Facility, Harvard Medical School, 2010)
